Test results as given in article PMC12040169 (PLOS Biology, 2025).
The list shows a part of the results.

Test system: T1, C. trachomatis L2/434/Bu expressing GFP (CTL2-GFP)
T1 construct: L2/434/Bu GFP intracellular growth in HeLa cells
Set-up: species or system HeLa; C. trachomatis total inclusion area by high-content imaging, normalised to DMSO
Conditions: total inclusion area; 28.5 h, 10 µM; inhibitor
In short: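 Post-fluorescence-read fixation, DNA staining with Hoechst and high-content imaging; GFP inclusion area and number per well, and nuclei counts, used as proxies for bacterial growth and host viability.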

SMILES | % of control remaining
COc1ccc(-n2ncc3c2CC(C)(C)CC3NC(=O)C2CC2)cc1 (centres unmarked) [CBK282337] | 100.605
COc1ccc(C(=O)C2=C(O)C(=O)N(CCCN(C)C)C2c2ccc(Cl)c(Cl)c2)cc1 (centres unmarked) [CBK264723] | 99.5516
O=C1COc2ccccc2CCCCC2(CCCN(C(=O)CN3CCCC3=O)C2)CN1 (centres unmarked) [CBK291992] | 109.408
O=C(N/N=C/c1c(F)cccc1Cl)c1ccccc1O [CBK261815] | 82.4882
CCN(c1cc(N2CCCNCC2)ccc1NS(=O)(=O)c1cccc2cccnc12)S(C)(=O)=O [CBK000014C] | 46.6131
O=C(O)c1cc(-c2cc(Cl)ccc2Cl)nc2ccccc12 [CBK265391] | 115.784
Cc1sc2nc(SCc3nc4ccccc4[nH]3)n(-c3ccc(Cl)c(Cl)c3)c(=O)c2c1C [CBK264594] | 96.6567
Cc1cc(C#N)ccc1OCC(=O)NC1CCS(=O)(=O)C1 (centres unmarked) [CBK305816] | 85.1145
Nc1c(-c2ccsc2)cnc2ncccc12 [CBK083707] | 108.881
Cc1ccc(C(=O)NCCCNC(=O)c2ccncc2)cc1 [CBK269477] | 108.373
Fc1cccc2sc(Nc3nc(-c4cccs4)cs3)nc12 [CBK287476] | 88.4292
Cc1cccc(=O)n1CCCNc1cc(C2CCOC2)ncn1 (centres unmarked) [CBK306992] | 99.5629
COCCSc1nc2c(c(=O)[nH]c(=O)n2C)n1CCCc1ccccc1 [CBK140504] | 110.178
CCNc1nnc(-c2c(Cl)c(C)nn2C)s1 [CBK288014] | 114.724
NC(=O)c1c(NC(=O)CSc2ccc(Cl)cc2)sc2c1CCCC2 [CBK263101] | 106.309
COC(=O)CCC(=O)N1CCCC2(CCN(C(=O)c3ccoc3)C2)C1 (centres unmarked) [CBK160988] | 100.363
NC(=O)C1CCN(C2=NC(=O)/C(=C/c3cn(-c4ccccc4)nc3-c3cccs3)S2)CC1 [CBK265179] | 113.727
O=S(=O)(Nc1ccc(C(O)(C(F)(F)F)C(F)(F)F)cc1)c1ccc(N2CCOCC2)nc1 [CBK062100] | 70.8688
OC1(Cn2cnc3ccccc32)CCN(Cc2ccccc2F)CC1 [CBK284662] | 105.21
Cc1cc(C)c2c(O)nc(SCC(=O)c3ccc(F)c(C)c3)nc2n1 [CBK266087] | 137.958
CCNC(=O)c1cc2c(=O)n3cc(C)ccc3nc2n(Cc2ccco2)c1=N [CBK265312] | 120.131
Cc1ccc2nc(C)cc(NC(=O)c3ccncc3)c2c1 [CBK287801] | 81.7395
COc1ccc(C(=O)CC(SCC(NC(C)=O)C(=O)O)c2ccc(Cl)cc2)cc1OC (centres unmarked) [CBK296109] | 65.5741
O=C(CNS(=O)(=O)c1cc(Br)c(Cl)s1)N1CCOCC1 [CBK034474] | 85.3072
COc1ccc(OC)c(NC(=O)CSc2nnc(-c3ccc(F)cc3)n2C)c1 [CBK266073] | 115.729
CC1CCCCN1C(=O)CN1C(=O)N2CCCN=C2c2ccccc21 (centres unmarked) [CBK284393] | 90.0792
CCOc1cc(N2CCOCC2)c(OCC)cc1NC(=O)CSc1ccccc1C(=O)O [CBK296107] | 66.9645

SMILES | % of control remaining
Cc1ccc(NC(=O)CCCn2cc([N+](=O)[O-])cn2)cc1Cl [CBK268485] | 99.1676
COc1ccc(-c2cc(C(=O)O)nn2C2CCS(=O)(=O)C2)cc1 (centres unmarked) [CBK286990] | 116.759
NC(=O)c1csc(-c2ccc(F)cc2F)n1 [CBK067749] | 57.6473
COc1cc2c(cc1OC)CN(Cc1ccccc1[N+](=O)[O-])CC2 [CBK261535] | 103.284
CCc1nc(CN2CCN(C(=O)Nc3ccccc3C)CC2)cs1 [CBK305817] | 64.8873
CC1CCc2c(sc3ncn(C4CCNCC4)c(=O)c23)C1 (centres unmarked) [CBK282349] | 64.7442
O=C(Cn1c(=O)oc2ccccc21)Nc1cccc(C(=O)O)c1 [CBK267641] | 96.6789
CC(=O)Nc1ccc(NC(=O)[C@H]2CCCC[C@H]2C(=O)O)cc1 [CBK287073] | 112.43
Cc1cccc(NC(=O)CCC(=O)N/N=C/c2cccnc2)c1 [CBK262023] | 71.8139
CCOC(=O)C(NS(=O)(=O)c1ccc(NC(C)=O)c(Cl)c1)C(=O)OCC [CBK043996] | 106.221
Cc1ccc(S(=O)(=O)NC(C)(C)C(=O)O)cc1 [CBK263840] | 99.1724
O=C(O)CCCn1cc(NC(=O)c2c(F)cccc2F)cn1 [CBK269941] | 101.474
CC1(C)CN(c2ccc(S(N)(=O)=O)cc2)C1=O [CBK020416] | 70.8971
CC(C)(C)N=C1c2nn(Cc3ccccc3)nc2C(=NC(C)(C)C)c2nn(Cc3ccccc3)nc21 [CBK261070] | 82.4976
CC(C)(C)c1ccc(OCCCC(=O)Nc2ccc(N3CCOCC3)cc2)cc1 [CBK264783] | 102.968
O=c1[nH]cc(-c2ccc(F)cc2)cc1CNCc1ccc(F)cc1 [CBK284695] | 101.26
COc1ccc(C(=O)C2=C(O)C(=O)N(CCN3CCOCC3)C2c2ccc(O)c(OC)c2)c(C)c1 (centres unmarked) [CBK264858] | 122.311
CC(O)CNCCNCc1cccs1 (centres unmarked) [CBK278279C] | 102.943
C=CCn1c(-c2sc(NC(=O)Cn3c(=O)n(CCC)c4ccccc43)nc2C)n[nH]c1=S [CBK297890] | 116.377
CCCc1[nH]nc(O)c1C(=O)c1c(Cl)cccc1Cl [CBK093553] | 90.5156
CCn1c(C)nc2cc(NC(=O)Cn3cccc(C(=O)NC4CCCCC4)c3=O)ccc21 [CBK286042] | 101.229
CCN1CCc2cc(-c3cncn3CC(=O)NC(C)(C)C)ccc21 [CBK281698] | 102.654
Cc1cc(Cn2nnc(-c3ccc(Br)cc3)n2)cc(C)c1O [CBK291129] | 110.69
CC1CCc2onc(C(=O)Nc3ccncc3)c2C1 (centres unmarked) [CBK288080] | 71.9374
O=C(c1ccncc1)N1CCc2cc(S(=O)(=O)N3CCOCC3)ccc21 [CBK287800] | 103.192
CSCCCNC(=O)N1CCN(C2CCN(C)CC2)CC1 [CBK155882] | 45.8974
COc1ccc(CN(C(=O)CCc2c(C)[nH]c(=O)c(C#N)c2C)C2CC2)cc1 [CBK295667] | 103.376

SMILES | % of control remaining
CCCS(=O)(=O)NC1CC(C)(C)Cc2c1cnn2-c1ccc(C)cc1 (centres unmarked) [CBK307531] | 63.0782
N#Cc1cnn2c(C(F)(F)F)cc(C(F)(F)F)nc12 [CBK014064] | 84.9659
CSCCN1CCN(c2nccnc2OCc2cccnc2)CC1 [CBK083146] | 102.276
CN(C(=O)CCc1nc2sc3c(c2c(=O)[nH]1)CCCC3)C1CCCCC1 [CBK306075] | 44.0764
CN(C)C(=O)c1cccc(-c2cnc3[nH]c(=O)n(Cc4ccc(Cl)cc4)c3n2)c1 [CBK064553] | 137.669
C=CCN1C(=O)/C(=C2/Sc3ccc(OC)cc3N2C)S/C1=N\c1cc(C#N)ccc1NCC [CBK262431] | 101.855
CS(=O)(=O)Nc1ncc(Br)cc1C(=O)Nc1ccc(C(F)(F)F)cc1 [CBK076485] | 100.359
COc1ncc(-c2cccc(N(C)CCN(C)C)n2)c(OC)n1 [CBK037599] | 77.8603
CCC1CCCCN1C(=O)CCc1c(C)nc(-c2ccccc2)[nH]c1=O (centres unmarked) [CBK305608] | 57.6659
O=C(Nc1cc2ccccc2c(Br)n1)Nc1ccc(F)cc1C(F)(F)F [CBK063278] | 79.239
CCc1nccn1CCC(=O)Nc1ccc2c(c1)CCN2C(C)=O [CBK281446] | 101.21
CCOC(=O)C1=C(C)NC(=S)NC1c1ccc(O)c(OCC)c1[N+](=O)[O-] (centres unmarked) [CBK265624] | 109.304
COc1ccc(CN2C(=O)CO[C@H]3CN(c4nccc(C)n4)C[C@H]32)cc1 [CBK289056] | 94.4277
Cc1ccc2nc(NCc3ccco3)c(/C=N/Cc3ccco3)c(=O)n2c1 [CBK220353] | 94.1212
c1cnc(Oc2ccc(CN3CCCC(c4cn[nH]c4)C3)cc2)cn1 (centres unmarked) [CBK306416] | 29.8997
CC(C)N(CC(=O)N(c1ccccc1)c1ccccc1)C(C)C [CBK013303C] | 62.6992
Nc1ncc(-c2cccc(O)c2)nc1NCc1ccco1 [CBK063675] | 99.0034
O=C(Nc1cccnc1)c1cc(-c2ccc(Cl)cc2)on1 [CBK116555] | 94.8648
NC(=O)c1c(NC(=O)c2ccc(COc3ccc4ccccc4c3)o2)sc2c1CCCC2 [CBK265871] | 101.474
COCC(C)NC(=O)c1cc2c(C)cc(C)cc2[nH]1 (centres unmarked) [CBK057591] | 105.974
CC1CCCN(Cc2c(C3CCNCC3)[nH]c3ncccc23)C1C (centres unmarked) [CBK285084] | 94.761
Cc1nc(CNCc2c(C)nn(C)c2N2CCOCC2)cs1 [CBK305753] | 98.8549
CN1CCN(CCCNC(=O)c2ccc(-c3ccc(C(=O)N(C)C)cc3)nc2)CC1 [CBK158343] | 102.875
CCCc1[nH]n(CC(=O)OCC)c(=O)c1Cc1c(Cl)cccc1Cl [CBK104764] | 90.7566
Clc1ccc(OCc2nnn[nH]2)c(C2CCCCC2)c1 [CBK270035] | 100.753
O=C(COc1ccc2ccccc2c1)Nc1ccc(S(=O)(=O)N2CCc3ccccc32)cc1 [CBK263802] | 105.191
